From PubChem BioAssay AID1345083 (National Center for Advancing Translational Sciences (NCATS), 2018)
Screen size: about 94,000 compounds; about 6,200 (6.6%) were called active. Inconclusive means that the source gave no clear call. Such entries were picked first, then a sample of the others. The call rests on the fitted dose curve; in most records, active means well fitted inhibition curve with a large enough effect; inconclusive means small, poorly fitted or top-dose-only effect; inactive means flat fitted curve, though single readings scatter. Where the call is inconclusive, the potency comes from a doubtful curve fit.

Assay: Cytotoxic Profiling in HEK 293 Cell Line of Diverse Libraries Using Quantitative High-Throughput Screening; further: nearly all actives have a fitted effect of over 60% in size
Settings: HEK 293 viability, ATP luminescence (CellTiter-Glo), 48-72 h; activity change, negative = cytotoxicity: at 115 µM (top of the series) unless noted; series mostly up to 115 µM
Outline: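 Pintool-delivered compounds were incubated with HEK 293 cells (250 cells/well) at 37 degree Celsius for 48 or 72 hr. ATP-dependent luminescence (CellTiter-Glo) then reported remaining viable cells.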
On the % scale 0 is the no-effect control and ±100 the full control effect; potency means the concentration at half of the fitted maximal effect; tags describe the fitted curve by direction and shape.

Row | SMILES | Potency | activity change, negative = cytotoxicity | outcome
1 | O[C@@H]1CN(Cc2cccn2-c2ccccn2)CC[C@H]1c1ccc2c(c1)OCO2 | inconclusive: 10 µM [inhibitor, full curve] | – | –
2 | O=C(Nc1nccs1)c1ccc2c(c1)OCCN(c1cccc(OC(F)(F)F)c1)C2 | inconclusive: 100 µM [inhibitor, partial curve] | – | –
3 | CCCn1c(C)cnc1C1CCN(S(=O)(=O)c2ccc3c(c2)CCC3)C1 (centres undefined) | inconclusive: 79.4 µM [inhibitor, partial curve, poor fit] | – | –
4 | COc1ccc(C2Cn3cnc(-c4nc(-c5ccc(OC(C)C)cc5)no4)c3CO2)cc1 (centres undefined) | – | inactive: -13.3% | –
5 | O=C(Nc1ccc(Cl)cc1)N1CCN(c2nccc(Nc3ccccc3F)n2)CC1 | active: 28.2 µM | – | –
6 | O=C(c1ccc(C2CCCNC2)cc1)N1CCC(Oc2cccc(F)c2)CC1 (centres undefined) | active: 28.2 µM | – | –
7 | O=C(c1cccc(Cl)c1)N1CCC(N2CCCNC2=O)CC1 | inactive | – | –
8 | CCN1c2cc(C(=O)Nc3cc(OC)cc(OC)c3)ccc2C(=O)N2CCCCCC21 (centres undefined) | inconclusive: 17.8 µM [inhibitor, partial curve, poor fit] | – | –
9 | O=C(NCc1ccc(C(F)(F)F)cc1)c1nc2cccnc2n(CCc2ccccc2)c1=O | inconclusive: 79.4 µM [inhibitor, partial curve] | – | –
10 | O=C1CC2(CCN(Cc3ccccc3)CC2)Oc2ccccc21 | inconclusive: 100 µM [inhibitor, partial curve, poor fit] | – | –
11 | CCOC(=O)C1c2c(OC)ccc3c2C(=CC(C)(C)CO3)CN1C(=O)C1CC1 (centres undefined) | inconclusive: 89.1 µM [inhibitor, partial curve, poor fit] | – | –
12 | COCCN1Cc2ccc(Nc3cccnc3)nc2C(C)(C(=O)Nc2cccc(F)c2)C1 (centres undefined) | inconclusive: 63.1 µM [inhibitor, full curve, poor fit] | – | –
13 | CSc1ccc(CNC(=O)c2cc3c(N4CCCC4)nc(C)cn3n2)cc1 | inconclusive: 100 µM [inhibitor, single point] | – | –
14 | COc1ccc(-c2cc(N3CCCC(NC(=O)Cc4cccc(F)c4)C3)n[nH]2)cc1 (centres undefined) | inconclusive: 50.1 µM [inhibitor, partial curve, poor fit] | – | –
15 | O=C(CC1CCCC1)N1CCC(N2C(=O)[C@H]3CN(Cc4ccccc4)C[C@H]3C2=O)CC1 | inconclusive: 89.1 µM [inhibitor, partial curve, poor fit] | – | –
16 | COc1ccc(CCc2nc3nccc(-c4ccc(OC)cc4)n3n2)cc1 | inconclusive: 39.8 µM [inhibitor, full curve, poor fit] | – | –
17 | CC(C)c1noc(-c2cn(C3CCN(C(=O)COc4ccc(F)cc4)C3)nn2)n1 (centres undefined) | inconclusive: 89.1 µM [inhibitor, single point] | – | –
18 | COc1ccccc1-c1cn2c(n1)CO[C@@H](CNC(=O)c1ccc(F)cc1)C2 | inconclusive: 100 µM [inhibitor, partial curve] | – | –
19 | Cc1ccccc1C(=O)N1CCn2c(nn(-c3ccc([N+](=O)[O-])cc3)c2=O)C1 | inconclusive: 79.4 µM [inhibitor, partial curve, poor fit] | – | –
20 | CC(=O)Nc1cccc(-c2cc(C(=O)NCc3c(C)cc(C)[nH]c3=O)c3c(c2)N(C(C)C)CCO3)c1 | inconclusive: 79.4 µM [inhibitor, partial curve, poor fit] | – | –
21 | CCN1c2cc(C(=O)Nc3cccc(SC)c3)ccc2C(=O)N2CCCCC21 (centres undefined) | active: 22.4 µM | – | –
22 | COCc1cc(=O)n(CC(=O)Nc2cc(OC)cc(OC)c2)c(N2CCOCC2)n1 | – | inactive: -13.8% | –

Row | SMILES | Potency | activity change, negative = cytotoxicity | outcome
23 | O=C(CCc1ccccc1)NCCn1cccc1-c1nc(-c2ccc3c(c2)OCO3)no1 | inconclusive: 56.2 µM [inhibitor, partial curve, poor fit] | – | –
24 | NC(=O)c1cccc2[nH]c([C@H]3CCN(Cc4ccccn4)C3)nc12 | inconclusive: 63.1 µM [inhibitor, full curve] | – | –
25 | O=C(c1cnccn1)N1CCC(c2nc(C3CCOCC3)no2)CC1 | inconclusive: 79.4 µM [inhibitor, single point] | – | –
26 | O=C1NCCN(Cc2cccc(Oc3ccccc3)c2)C1CC(=O)N1CCCOCC1 (centres undefined) | inconclusive: 89.1 µM [inhibitor, single point] | – | –
27 | CC(C)c1ccc(-n2cc(CN3CCCC4(C3)CN(C)C(=O)O4)cn2)cc1 (centres undefined) | inconclusive: 50.1 µM [inhibitor, partial curve, poor fit] | – | –
28 | Cn1ccc(C(=O)N2CC(CNC(=O)Nc3ccccc3)C3(C2)CN(c2ccccc2)C3)n1 (centres undefined) | – | inactive: -10.8% | –
29 | O=C(c1ccccc1Cl)N1CCN(CCCn2nc3n(c2=O)CCCC3)CC1 | – | inactive: -12.4% | –
30 | COCCN1Cc2nc(-c3cc(F)cc(F)c3)ccc2OCC1=O | inconclusive: 100 µM [inhibitor, partial curve] | – | –
31 | COCc1nc(-c2ccc(OC3CCN(C(=O)c4sc(C)nc4C)C3)cc2)no1 (centres undefined) | inconclusive: 50.1 µM [inhibitor, partial curve, poor fit] | – | –
32 | CCOC(=O)C1(Cc2ccc(Cl)cc2)CCN(C(=O)c2ccc(C)s2)CC1 | inconclusive: 39.8 µM [inhibitor, partial curve, poor fit] | – | –
33 | O=C(Nc1ccc2c(N3CCOCC3)ncnc2c1)c1ccc(F)c(Cl)c1 | inconclusive: 44.7 µM [inhibitor, partial curve, poor fit] | – | –
34 | O=C1NCCCCCCN(C(=O)c2ccoc2)[C@H]2C[C@H](C(=O)N3CCN(c4ccccn4)CC3)C[C@@H]12 | inconclusive: 89.1 µM [inhibitor, single point] | – | –
35 | O=C(C1CCCC1)N1CCC2(CC1)CC(N(Cc1ccc(F)cc1)C1CC1)CCO2 (centres undefined) | inconclusive: 50.1 µM [inhibitor, partial curve, poor fit] | – | –
36 | O=C1CCN(Cc2ccc(C(F)(F)F)cc2)CCCOCCN1 | – | inactive: -16.5% | –
37 | N[C@H]1CO[C@H]2[C@@H]1OC[C@@H]2n1cc(-c2ccccn2)nn1 | active: 126 µM | – | –
38 | CCC(=O)N1CCN(C2CCN(CCC(C)C)C2=O)CC1 (centres undefined) | – | inactive: -14.2% | –
39 | CC(NC(=O)CCc1conc1-c1ccccc1)c1ccc(F)cc1 (centres undefined) | inconclusive: 100 µM [inhibitor, single point] | – | –
40 | Cc1nc(-c2cnccn2)n(CC(=O)Nc2ccc(F)c(Cl)c2)c(=O)c1C | inconclusive: 28.2 µM [inhibitor, partial curve, poor fit] | – | –
41 | CCOCc1nc(C2CCCN2C(=O)Nc2ccccc2F)no1 (centres undefined) | inconclusive: 100 µM [inhibitor, single point] | – | –
42 | COc1ccccc1-c1cccc(CN2CCC(NC(=O)c3cccnc3)CC2)c1 | inconclusive: 50.1 µM [inhibitor, partial curve, poor fit] | – | –
43 | Cc1cc(=O)n(CC(=O)Nc2ccc(C)c(Cl)c2)c(N2CCN(c3ccccc3)CC2)n1 | inconclusive: 10 µM [inhibitor, full curve, poor fit] | – | –
44 | CC(C)C(=O)N1CCc2c(n(Cc3cccnc3)n(CCc3ccccc3)c2=O)C1 | inconclusive: 126 µM [inhibitor, single point] | – | –

Row | SMILES | Potency | activity change, negative = cytotoxicity | outcome
45 | Cc1noc(C)c1-c1cc2cc(C(C)C)oc2c(N(C)CCN(C)C)n1 | active: 35.5 µM | – | –
46 | CC(=O)N1CCNc2cc(NCc3ccc(F)cc3)ncc2C1 | – | inactive: -54.8% [at 172 µM] | –
47 | Cn1ncc2c(C(=O)N3CCC(C#N)CC3)cc(-c3ccccc3C(F)(F)F)nc21 | inconclusive: 44.7 µM [inhibitor, partial curve] | – | –
48 | CC(C)NC(=O)c1ccccc1OCC1CCCN(Cc2ccccn2)C1 (centres undefined) | – | inactive: -10.1% | –
49 | C=CCNC(=O)N1CC[C@@H](CC(=O)O)[C@@H](CC2=NCCc3cc(OC)ccc32)C1 | – | – | inactive [at 172 µM]
50 | O=C(Cc1cccc(Cl)c1)N1CCC(n2cnnc2C2CC2)CC1 | – | inactive: 8.25% | –
51 | O=C(COc1ccc(F)cc1)N1CCCC(Cc2noc(-c3ccccc3)n2)C1 (centres undefined) | inconclusive: 44.7 µM [inhibitor, partial curve, poor fit] | – | –
52 | Cc1cccc(CN2CCC3(CC2)Cc2ccccc2CNC3=O)c1 | inconclusive: 56.2 µM [inhibitor, partial curve, poor fit] | – | –
53 | CC(C)c1nc2c(c(-c3ccc(Cl)cc3)n1)CCN([S+](=O)([O-])c1cccc(C(F)(F)F)c1)CC2 | – | – | inactive
54 | NCC(C1CCCCC1)N1CCOCC1 (centres undefined) | – | inactive: -15.3% [at 230 µM] | –
55 | CN1CCN(c2ccc(-c3cc4c(ccn4C)c(C(=O)NCCC(N)=O)n3)cc2)CC1 | active: 70.8 µM | – | –
56 | CC(=O)Nc1ccc(NC(=O)CN2C(=O)NC(c3ccc(C)cc3)C3=C2COC3=O)cc1 (centres undefined) | – | inactive: -6.68% | –
57 | O=C(C1CC1)N1CCN(c2nccc(Nc3ccccc3Cl)n2)CC1 | inconclusive: 44.7 µM [inhibitor, partial curve, poor fit] | – | –
58 | COCCOCC1(CNC(=O)c2cc(C)nn2C)C[C@@H](O)[C@@H](O)C1 (some centres undefined) | inconclusive: 126 µM [inhibitor, single point] | – | –
59 | COC1CN(c2cccc(F)c2)C12CCN(CC1CCCCC1)CC2 (centres undefined) | inconclusive: 50.1 µM [inhibitor, partial curve, poor fit] | – | –
60 | CCN1C(=O)CCN(Cc2cn(C)c3ccccc23)CC12CCOCC2 | active: 79.4 µM | – | –
61 | O=C(Nc1ccc(Cl)cc1Cl)c1ccc2cc[nH]c2n1 | – | inactive: -8.85% | –
62 | COc1ccccc1-c1cccc(C(=O)N2CCC[C@H]2C(=O)NCc2cccc(F)c2)c1 | inconclusive: 89.1 µM [inhibitor, single point] | – | –
63 | O=C(Cc1ccc(F)cc1)N1CCC(C(=O)N2CCC(c3nc4ncccc4[nH]3)CC2)CC1 | – | inactive: -1.37% | –
64 | COc1ccc(CC(=O)N2CCc3nc(-c4ccc(Cl)cc4)nc(-c4ccccc4)c3C2)cc1 | inconclusive: 50.1 µM [inhibitor, partial curve, poor fit] | – | –
